Assay [1] concerns the target SARS-CoV-2 Wuhan-Hu-1 spike pseudovirus. Nature of the assay: pseudovirus neutralization IC50; higher = weaker neutralization. The procedure:
(§1)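 Single-round luciferase reporter pseudovirus mixed with antibody dilutions and put on 293T-ACE2 cells for 48 h; signal relative to no-antibody wells, four-parameter fit.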

Assay [2] has the same target. Description: pseudovirus neutralization IC90; higher = weaker neutralization. The procedure: as §1
The target in assay [3] is SARS-CoV-2 Delta (B.1.617.2) spike RBD. Description: ELISA binding EC50; higher = weaker binding; ELISA of recombinant human antibody on coated antigen, from 10 µg/ml in fourfold dilutions; four-parameter fit.
Assay [4] addresses SARS-CoV-2 Omicron BA.1 spike protein. The assay is described as above.
Assay [5] has as its target SARS-CoV-2 Wuhan-Hu-1 spike receptor-binding domain. Described as above.

Recombinant human monoclonal antibodies (heavy:light variable regions). ELISA EC50 on the named antigen, from 10 µg/ml down; IC50 / IC90 against spike pseudovirus on 293T-ACE2 cells, 48 h; lower = stronger. Calls: IC50 above 1,000 ng/ml = non-neutralizing; EC50 above 1,000 ng/ml = non-binder. The source prints 1000 for neutralization that was not reached; it is given as >1000 ng/ml. Only binders of the Wuhan-Hu-1 domain have neutralization values.

B1: B1082 (protein)
chain 1: QVQLVESGGGVVQPGRSLRLSCAVSGFTFSRYGMHWVRQAPGKGLEWVGVILYDGSNEYYADSVKGRFTISRDNSKNTLYLQINSLRVEDTAVYYCAKASGPYCGGGDCYSAFFDYWGQGTLVTVSS
chain 2: DIQMTQSPSTLSASVGDRVTITCRASQSISRWLAWYQQKPGKAPKVLIYEASSLESGVPSRFSGSGSGTEFTLTISSLQPDDFATYYCQQYNSYSSFGQGTKLEIK
As to B1, the “pseudovirus neutralization IC50” value in assay [1] is more than 1 µg/mL. The “pseudovirus neutralization IC90” value in assay [2] is more than 1 µg/mL. The “ELISA binding EC50” value in assay [3] came out at 0.0137 µg/mL; in assay [4], 0.00343 µg/mL; in assay [5], 0.00479 µg/mL.

B2: B1083 (protein)
chain 1: QVQLVESGGGVVQPGRSLRLSCAVSGFTFSRYGMHWVRQAPGKGLEWVGVILYDGSNEYYADSVKGRFTISRDNSKNTLYLQINSLRVEDTAVYYCAKASGPYCGGGDCYSAFFDYWGQGTLVTVSS
chain 2: DIQMTQSPSSLSAYVGDRVTITCQASQDISNYLHWYQQKSGKAPTLLIYDASNLQTGVPSRFRGSGSGTDFTLTISSLQPEDFATYYCQQYDNLPPTFGGGTKVEIK
B2: the “pseudovirus neutralization IC50” value in assay [1] is 0.215 µg/mL. The “pseudovirus neutralization IC90” value in assay [2] was more than 1 µg/mL. Also, the “ELISA binding EC50” value came to 0.552 µg/mL in assay [3], 0.0902 µg/mL in assay [4] and 0.0069 µg/mL in assay [5].

B3: B2104 (protein)
chain 1: EVQLVQSGAEVKKPGESLKISCKGSGYMFTSSWIAWVRHMPGKGLEWMGIIHPGDSDTRYSPSFQGQVTFSADKSISTAYLQWSSLKASDTAMYYCASYGGIYHGWLDPWGQGTLVTVSS
chain 2: QSVLTQPPSASGTPGQRVTISCSGSSSNIGTNPVNWYQQLPGTAPKLLIYNNHQRPSGVPDRFSGSKSATSASLAISGLQSEDEADYYCATWDDSLNGYVFGTATKVTVL
Consider B3, for which, in assay [1], the “pseudovirus neutralization IC50” value is more than 1 µg/mL. Besides, the “pseudovirus neutralization IC90” value in assay [2] was more than 1 µg/mL. Further, the “ELISA binding EC50” value in assay [3] is 0.0155 µg/mL; in assay [4], 0.0463 µg/mL; in assay [5], 0.00769 µg/mL.

B4: B1078 (protein)
chain 1: QVQLVQSGAEVKKPGASVKVSCKASGYTFTSYDINWVRQATGQGLEWMGWMNPHSGNTGYARTFQGRVTVTRNTSISTAYMELSSLRSEDTAVYYCAITYEAHDILTGCLDSWGQGTLVTVSS
chain 2: SYVLTQPPSVSVAPGQTARITCGGDYIGSKNVHWYQLRPGQAPVLVVYDDSDRPSGIPERFSGSNSGNTATLTISRVEAGDEADYYCQVWDSSSDQLYVFGAGTKVTVL
Regarding B4, in assay [1], the “pseudovirus neutralization IC50” value was more than 1 µg/mL. In addition, the “pseudovirus neutralization IC90” value in assay [2] is more than 1 µg/mL. The entries for the “ELISA binding EC50” value in assay [3], in assay [4] and in assay [5] were 0.0225 µg/mL, 0.0882 µg/mL and 0.00306 µg/mL, respectively.

B5: B1077 (protein)
chain 1: QVQLQESGPKLVKPSETLSLTCTVSGASISSYYWSWIRQPPGKGLEWIGYIFYNGRTSYNPSLKSRVTLSVDTSKDQFSLKLNSVTAADTAVYFCATDYYDTSGWHYGLDYWGQGALVTVSS
chain 2: DIQLTQSPSFLSASVGDRVTITCRASQGISSHLGWYQQKPGKAPKLLIYGASTLQSGVPSRFSGSGSGTEFTLTISSLQPEDFATYYCQQLNSYRLFGQGTRLDIK
Regarding B5, the “pseudovirus neutralization IC50” value in assay [1] was more than 1 µg/mL. Further, in assay [2], the “pseudovirus neutralization IC90” value was more than 1 µg/mL. Further, the entries for the “ELISA binding EC50” value in assay [3], in assay [4] and in assay [5] were 0.0192 µg/mL, 0.027 µg/mL and 0.00424 µg/mL, respectively.

B6: B1079 (protein)
chain 1: EVQLVESGGGLVQPGRSLRLSCAASGFTFDDYAMHWVRQAPGKGLEWVSGISWNSGSTGYADSVKGRFTISRDNAKNSLYLQMSSLRAEDTAFYYCAKGTIGVPLRECYFDYWGQGTLVTVSS
chain 2: QSVLTQPRSVSGSPGQSVTISCTGTSSDVGGYDYVSWYQQHPGKAPKLMIYDVSERPSGVPDRFSGSKSGNAASLTISGLQAEDEADYYCCSYAGSYLLVFGGGTKLTVL
Regarding B6, the “pseudovirus neutralization IC50” value in assay [1] is 0.025 µg/mL. In addition, the “pseudovirus neutralization IC90” value in assay [2] was 0.804 µg/mL. For the same molecule, the entries for the “ELISA binding EC50” value in assay [3], in assay [4] and in assay [5] were 0.0235 µg/mL, more than 1 µg/mL and 0.00336 µg/mL, respectively.

B7: B1081 (protein)
chain 1: EVQLVESGRGLVQPGRSLRLSCAASGFTFDDYAMHWVRQAPGKGLEWVSGISWNSGSIGYVDSVKGRFTISRDNAKNTLYLQMNSLRAEDTALYYCAKGTIAVPLRECSLDYWGQGTLVTVSS
chain 2: QSVLTQPASVSGSPGQSITISCTGTSSDVGGYDYVSWYQQHPGKAPKLMIYEVSNRPSGVSNRFSGSKSGNTASLTISGLQAEDDADYYCSSYTSSITRYVFGTGTKVTVL
Consider B7, for which the “pseudovirus neutralization IC50” value in assay [1] stood at 0.00775 µg/mL. In addition, in assay [2], the “pseudovirus neutralization IC90” value was 0.424 µg/mL. Also, the “ELISA binding EC50” value in assay [3] is 0.0122 µg/mL; in assay [4], more than 1 µg/mL; in assay [5], 0.00242 µg/mL.

B8: B1085 (protein)
chain 1: EVQLVESGGGLVQPGGSLRLSCGASGFTFSTYDMHWVRQTTETGLEWVSAIGTAGDTYYRDSVKGRFTISRENAKNSLYLQMNSLRAGDTAVYYCARGLNSDNYAVWAFDIWGQGTMVTVSS
chain 2: DIQMTQSPSSLSASVGDRVTITCRARQSIGTYLNWYQQKPGKAPKLLIHAASNLQSGVPSRFSGSGSGTDFTLTISSLQPEDFATYYCQQSYSNPPTTFGPGTKVDIK
Regarding B8, the “pseudovirus neutralization IC50” value in assay [1] turned out to be 0.245 µg/mL. The “pseudovirus neutralization IC90” value in assay [2] was more than 1 µg/mL. The figures for the “ELISA binding EC50” value in assay [3], in assay [4] and in assay [5] were 0.0311 µg/mL, 0.0127 µg/mL and 0.00244 µg/mL, respectively.

B9: B1076 (protein)
chain 1: EVQLVESGGGLIEPGGSLRLSCTASELIVSRNYMTWVRQAPGKGLEWVSVIYAGGTTYYADSVKGRFTISRDNSKNTLYLQMNRLRAEDTAVYYCARDLVNSGLDCWGQGTLVTVSS
chain 2: DIQLTQSPSFLSASVGDRVTITCRASQGISSYLAWYQQKPGKAPKLLIYAASTLQTGVPSRFSGSGSGTEFTLTISSLQPEDFATYYCQQLDSYPPYTFGQGTKLEIK
Turning to B9, in assay [1], the “pseudovirus neutralization IC50” value was found to be 0.00825 µg/mL. Further, the “pseudovirus neutralization IC90” value in assay [2] was determined as 0.0843 µg/mL. Besides, the “ELISA binding EC50” value was 0.0172 µg/mL in assay [3], more than 1 µg/mL in assay [4] and 0.00379 µg/mL in assay [5].

B10: B2103 (protein)
chain 1: EVQLVESGGDLVHPGESLTLSCAASGFTFSSYSMNWVRQAPGKGLEWVSYVSSSATTIYYAESVKGRFTISRDNAKNSLYLQMNSLRDEDMAVYYCARDRTPFYDAWNGWGPLDYWGQGTLVTVSS
chain 2: DIVMTQSPDSLAVSLGERATINCKSSQSVLRSSNNKNYLAWYQQKRGQPPKLLIYWASTRESGVPDRFSGSGSGTDFTLTISTLQAEDVAVYYCQQYYGPLYTFGQGTKLEIK
Turning to B10, the “pseudovirus neutralization IC50” value in assay [1] is more than 1 µg/mL. Besides, the “pseudovirus neutralization IC90” value in assay [2] is more than 1 µg/mL. The “ELISA binding EC50” value came to 0.0532 µg/mL in assay [3], 0.516 µg/mL in assay [4] and 0.00648 µg/mL in assay [5].

B11: B634 (protein)
chain 1: EVQLVESGGGLVKPGGSLRLSCSASGFIFTNYNMHWVRQAPGKGLEWVSSISSGSDYIYYSDSLKGRFTISRHNAKNSLYLHMNSLRAEDTAVYYCAREGYHSGLDVWGLGTTVSVSS
chain 2: EIVLTQSPGTLSLSPGERATLSCRASQSVSSSYLAWYQHKPGQAPRLLIYGASSRAPGIPDRFSGSGSGTDFTLTISRLEPEDFAVYYCQQYGNSPLITFGQGTRLEIK
On to B11, for which the “pseudovirus neutralization IC50” value in assay [1] stood at 0.0323 µg/mL. Besides, the “pseudovirus neutralization IC90” value in assay [2] was determined as 0.121 µg/mL. The figures for the “ELISA binding EC50” value in assay [3], in assay [4] and in assay [5] were 0.0269 µg/mL, more than 1 µg/mL and 0.00896 µg/mL, respectively.

B12: B635 (protein)
chain 1: EVQLVESGGGLIQPGGSLRLSCAASGFIVSSNYMSWIRQAPGKGLEWVSILYPGGSAFYADSVKGRFTISRDNSKSTLYLQMNSLRAEDTAVYYCARYGLWLDWGQGTLVTVSS
chain 2: EIVLTQSPATLSLSPGERATLSCRASENIVSYLAWYQQKPGQAPRLLIYDASNRATAIPARFSGSGSGTDFTLTISSLEPEDFAIYYCQQRSDWPPLTFGQGTKVEIK
Regarding B12, the “pseudovirus neutralization IC50” value in assay [1] came to 0.0111 µg/mL. Also, the “pseudovirus neutralization IC90” value in assay [2] was determined as 0.0394 µg/mL. For the same molecule, the “ELISA binding EC50” value is 0.00629 µg/mL in assay [3], more than 1 µg/mL in assay [4] and 0.00216 µg/mL in assay [5].

B13: B632 (protein)
chain 1: QVQLVQSGAEVKKPGASVKVSCKASGYTFTRYVMHWVRQAPGQRLEWMGWINGGNGDTKYSQKFQGRVTITRDTSASTAHMELRSLRSEDTAVYYCARDLYYYNRSGHYDVDYNLDYWGQGTLVTV
chain 2: QSVLTQPPSVSGAPGQRVTISCTGSSSNTGAGYDVHWYQQLPGTAPKLLIYGNTNRPSGVPDRFSGSKSGTSASLAITGLQAEDEADYYCQSYDSSLSGYVIFGGGTKLTVL
For B13, the “pseudovirus neutralization IC50” value in assay [1] stood at 0.0321 µg/mL. Moreover, the “pseudovirus neutralization IC90” value in assay [2] was 0.362 µg/mL. For the same molecule, the “ELISA binding EC50” value in assay [3] came to 0.00317 µg/mL; in assay [4] it was 0.0142 µg/mL; in assay [5], 0.0028 µg/mL.

B14: B633 (protein)
chain 1: EVQLVESGGGLIQPGGSLRLSCAASGFIVSSNYMSWVRQAPGKGLEWVSVIYSGGSTFYADSVKGRFTISRDNSKNTLYLQMNSLRAEDTAVYYCARTLPGTTDLFDYWGQGTLVTVSS
chain 2: QSVLTQPPSVSGAPGQRVTISCTGSSSNIGAGYDVHWYQQLPGTAPKLLIYGDSNRPSGVPDRFSGSKSGTSASLAITGLQAEDEADYYCQSFDSSLSGLGVFGTGTKVTVL
Regarding B14, the “pseudovirus neutralization IC50” value in assay [1] amounted to 0.0148 µg/mL. The “pseudovirus neutralization IC90” value in assay [2] was 0.12 µg/mL. Also, the results for the “ELISA binding EC50” value in assay [3], in assay [4] and in assay [5] were 0.0293 µg/mL, more than 1 µg/mL and 0.00342 µg/mL, respectively.

Values taken from the supplement of paper PMC9513381.
